# Laboratory results taken from the supplement of paper PMC11417369.
# ± gives the standard deviation of the averaged measurements. This is one part of the list.
# Tested on: PfAP2-EXP AP2 domain (GST-tagged)
# Assay: gcPBM binding intensity (ln(normalized median fluorescence intensity)); higher = stronger DNA binding
# How it was run: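 Using an Agilent 4 × 180k array, primer-extended double-stranded 36-bp intergenic genomic probes and negative controls were exposed for 1 h to GST-fused P. falciparum DNA-binding domains expressed in E. coli. Binding was carried out in 1× PBS with 1% milk, 0.2 mg/ml BSA, 0.5% salmon testes DNA and 0.03% Triton X-100, and protein was detected with Alexa488 anti-GST antibody and a 488 nm scan. Binding intensity is the highest Masliner-normalised natural-log median intensity across replicate spots of either probe orientation.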
row,Sequence,gcPBM binding intensity (ln)
1,TTTGAACTTTTATATACACACATTATTATAGTATAG [CACACA_site6851],8.38 ± 0.38
2,AGTTCATATTTAAAAAGTACATATTTAAAAACTTCT [XGTACX_site4882],8.26 ± 0.36
3,AAAAAAAAAAAAAAATGTACTTTTATTATTAATATA [XGTACX_site6357],8.22 ± 0.17
4,ATGCATATATTTATGTGTACATATATTTGTAGGGGG [XGTACX_site6063],10.6 ± 0.19
5,ATTAATTAAAATAGTTGTACAATCAAAAAAACAAAA [XGTACX_site7660],9.05 ± 0.5
6,AACAAAGAGAAATAAACACACACAAAATAAAGAAAA [CACACA_site8704],8.87 ± 0.62
7,TTTTTGTATGCTTCCCGACTACATTATGTCGTAAAT [GTGCAC_negctrl_site164],8.95 ± 0.45
8,ATATCGAAAATTTGGTGTACATTTTTATTTGTTCAA [XGTACX_site3094],8.55 ± 0.35
9,AGAATATATAAGTATACACACATATATATATATATA [CACACA_site201],10.1 ± 0.38
10,TATAAAATAATTAAATGTACATAATATATAAAATAT [XGTACX_site6777],8.72 ± 0.36
11,TTATAAATATTCACTGTGCACTGATGGAATATAAAT [GTGCAC_site9739],8.64 ± 0.15
12,GATATTACGTGTTTGGTATTTTTTGATGTTAATAGG [CACACA_negctrl_site105],8.8 ± 0.52
13,TTTTTATTTTTTTATGCATGTGATGAAACGTGCCTA [TGCATGCA_site141],8.9 ± 0.37
14,TAATAAATCAAATGCACACACACAAAAAAAAAAAAA [CACACA_site161],8.36 ± 0.57
15,ATAATTAACAAATACACACACACACCCAGACAAAAA [CACACA_site4445],9.04 ± 0.28
16,AACAATTAGAATAACGCATGCATTTATAATATAGAA [TGCATGCA_site595],9.52 ± 0.071
17,TGTGTATATATAAATACACACCAAATGTTAATATAT [CACACA_site8501],8.28 ± 0.28
18,AATATGTCTTAAAAAAGTACATAAATTTTAACTTCA [XGTACX_site6670],8.215 ± 0.049
19,TTTTTAATCATAATATGTACATATAAAAATGGTTTG [XGTACX_site3996],8.49 ± 0.4
20,AAACAAATAAAAATATGTACACATTTTTTCATTATG [XGTACX_site5449],8.39 ± 0.19
21,AAAATATTAAATATGTGTACATATAATAGTTCAATG [XGTACX_site5957],8.41 ± 0.29
22,TTAAAAGAAAATAGGTGTACACATAATATATACATA [XGTACX_site7697],8.92 ± 0.057
23,TCATATATATATATATGTACATATTTATGTATGTAT [XGTACX_site6291],8.45 ± 0.16
24,ACATAGATCATAGGTTGTACGAAGGTATCCTTTATT [XGTACX_site694],8.55 ± 0.4
